# The supplement of paper PMC4967469
# By IC50 is meant the dose at which the fit gives 50% viability; a fit beyond the top or the lowest dose is shown as a bound at that dose. AUC sums up the same curve from the lowest dose to the 256-fold higher top dose; it is 1 without any effect and falls as sensitivity rises. For some assays here: A top dose marked as inferred comes from the curve model; the source does not state it. For some assays here: Where an entry number is given, a second screen of the drug exists; the two often differ.
# Legend:
# Test in all cases: Viability of human cancer cell lines after 72 h of drug (GDSC screen)
# [1] = compound: CC(C)C[C@@H](C=O)NC(=O)[C@H](CC(C)C)NC(=O)[C@H](CC(C)C)NC(=O)OCc1ccccc1 [MG-132]; details: top dose 1 µM
# Method: (§1)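 Human cancer cell lines in 384-well plates, medium with 10% serum, drug for 72 h over a 256-fold dose range (nine 2-fold or five 4-fold steps up to the top dose). Adherent lines were fixed and stained with the nucleic acid dye Syto60, suspension lines read with resazurin; signal relative to control wells, capped at 0 and 100%. One two-parameter sigmoid per drug and line, fitted in a mixed model over all curves with the slope shared within a line.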
# [2] = compound: Cc1ccc(Nc2nccc(N(C)c3ccc4c(C)n(C)nc4c3)n2)cc1S(N)(=O)=O [Pazopanib]; details: top dose 8 µM
# Method: as §1
# [3] = compound: CC(C)[C@H](C(=O)Nc1ccc(C(=O)NO)cc1)c1ccccc1 [AR-42]; details: top dose 5.12 µM; top dose inferred
# Method: as §1
# [4] = compound: CS(=O)(=O)N1CCN(Cc2cc3nc(-c4cccc5[nH]ncc45)nc(N4CCOCC4)c3s2)CC1 [GDC0941]; details: top dose 4 µM; screen: GDSC drug entry 1527; top dose inferred
# Method: as §1
# [5] = compound: C[C@]12O[C@H](C[C@]1(O)CO)n1c3ccccc3c3c4c(c5c6ccccc6n2c5c31)CNC4=O [CEP-701]; details: top dose 2 µM; top dose inferred
# Method: as §1
# [6] = compound: Cn1cc(C2=C(c3ccc(Cl)cc3Cl)C(=O)NC2=O)c2ccccc21 [SB 216763]; details: top dose 10 µM; top dose inferred
# Method: as §1
Cell Line,AUC [1],IC50 [1] [µM],AUC [2],IC50 [2] [µM],AUC [3],IC50 [3] [µM],AUC [4],IC50 [4] [µM],AUC [5],IC50 [5] [µM],AUC [6],IC50 [6] [µM]
"CAL-148 (breast, suspension)",0.942,> 1,0.983,> 8,0.44,0.223,–,–,–,–,–,–
"ECC12 (stomach, suspension)",0.83,0.864,–,–,–,–,–,–,–,–,–,–
"EW-12 (Ewing sarcoma, suspension)",0.972,> 1,–,–,–,–,–,–,–,–,–,–
"HCC1599 (breast, suspension)",0.978,> 1,0.961,> 8,0.367,0.13,–,–,–,–,–,–
"IST-MES1 (mesothelioma, adherent)",0.826,0.612,0.92,> 8,0.642,0.791,–,–,–,–,–,–
"KP-N-YS (neuroblastoma, adherent)",0.981,> 1,0.981,> 8,0.525,0.378,–,–,–,–,–,–
"LNCaP-Clone-FGC (prostate, adherent)",0.953,> 1,0.855,7.85,0.338,0.106,–,–,–,–,–,–
"NCI-H128 (small cell lung carcinoma, suspension)",0.907,> 1,–,–,–,–,–,–,–,–,–,–
"NCI-H748 (small cell lung carcinoma, suspension)",0.896,> 1,0.974,> 8,0.257,0.0519,–,–,–,–,–,–
"NCI-H1299 (large cell lung carcinoma, adherent)",0.974,> 1,0.863,> 8,0.832,4.37,–,–,–,–,–,–
"NCI-H2171 (small cell lung carcinoma, suspension)",0.988,> 1,0.989,> 8,0.471,0.27,–,–,–,–,–,–
"NCI-H2196 (small cell lung carcinoma, adherent)",0.931,> 1,0.97,> 8,0.49,0.3,–,–,–,–,–,–
"SCC-3 (B-cell lymphoma, suspension)",0.735,0.233,0.981,> 8,0.521,0.359,–,–,–,–,–,–
"SK-MEL-24 (melanoma, adherent)",–,–,0.983,> 8,0.674,1.09,0.825,3.12,0.691,0.483,0.983,> 10
"SK-MEL-30 (melanoma, adherent)",–,–,0.975,> 8,0.572,0.51,0.901,> 4,0.8,1.03,0.986,> 10
"SK-N-SH (neuroblastoma, adherent)",–,–,0.824,4.69,0.434,0.211,0.836,2.63,0.657,0.339,0.98,> 10
"SKG-IIIa (cervix, adherent)",–,–,0.977,> 8,0.842,> 5.12,0.893,> 4,0.585,0.232,0.966,> 10
"SKM-1 (haematopoietic neoplasm, suspension)",0.94,> 1,–,–,–,–,0.673,0.803,–,–,–,–
"SLVL (B-cell lymphoma, suspension)",–,–,0.948,> 8,0.314,0.0929,0.901,> 4,0.839,1.48,0.98,> 10

Cell Line,AUC [1],IC50 [1] [µM],AUC [2],IC50 [2] [µM],AUC [3],IC50 [3] [µM],AUC [4],IC50 [4] [µM],AUC [5],IC50 [5] [µM],AUC [6],IC50 [6] [µM]
"SNU-449 (liver, adherent)",–,–,0.905,> 8,0.777,2.26,0.685,0.868,0.856,1.85,0.945,> 10
"SNU-C2B (large intestine, adherent)",–,–,0.932,> 8,0.539,0.422,0.838,> 4,0.807,1.44,0.976,> 10
"SU8686 (pancreas, adherent)",–,–,0.982,> 8,0.781,2.41,0.886,> 4,0.793,1.04,0.984,> 10
"SU-DHL-1 (anaplastic large cell lymphoma, suspension)",0.893,0.61,0.994,> 8,0.754,1.32,–,–,–,–,–,–
"SU-DHL-5 (B-cell lymphoma, suspension)",–,–,0.976,> 8,0.137,0.0374,0.291,0.0766,0.386,0.0659,0.994,> 10
"SUIT-2 (pancreas, adherent)",–,–,0.941,> 8,0.516,0.354,0.899,> 4,0.664,0.367,0.986,> 10
"SW13 (adrenal gland, adherent)",–,–,0.9,> 8,0.976,> 5.12,0.675,0.773,0.712,0.5,0.987,> 10
"SW780 (bladder, adherent)",–,–,0.972,> 8,0.944,> 5.12,0.642,0.642,0.645,–,0.986,> 10
"SW948 (large intestine, adherent)",–,–,0.971,> 8,0.565,0.521,0.939,> 4,0.883,> 2,0.978,> 10
"SW1271 (small cell lung carcinoma, adherent)",–,–,0.797,4.44,0.594,0.603,0.97,> 4,0.786,1.01,0.984,> 10
"SW1417 (large intestine, adherent)",–,–,0.986,> 8,0.591,0.594,0.889,> 4,0.794,1.1,0.985,> 10
"SW1710 (bladder, adherent)",–,–,0.774,3.24,0.586,0.555,0.649,0.654,0.498,0.124,0.929,> 10
"SW1990 (pancreas, adherent)",–,–,0.825,5.98,0.978,> 5.12,0.902,> 4,0.8,1.17,0.977,> 10
"SiHa (cervix, adherent)",–,–,0.965,> 8,0.965,> 5.12,0.878,> 4,0.839,1.68,0.985,> 10
"T47D (breast, adherent)",–,–,0.945,> 8,0.471,0.255,0.535,0.327,0.879,> 2,0.96,> 10
"T84 (large intestine, adherent)",–,–,0.989,> 8,0.62,0.689,0.722,1.08,0.97,> 2,0.989,> 10
"T98G (glioma, adherent)",–,–,0.878,7.07,0.68,0.973,0.773,1.44,0.688,0.402,0.896,> 10
"TE-441-T (rhabdomyosarcoma, adherent)",0.975,> 1,0.989,> 8,–,–,–,–,–,–,–,–
"TGBC11TKB (stomach, adherent)",–,–,0.99,> 8,0.591,0.55,0.959,> 4,0.85,1.25,0.99,> 10

Cell Line,AUC [1],IC50 [1] [µM],AUC [2],IC50 [2] [µM],AUC [3],IC50 [3] [µM],AUC [4],IC50 [4] [µM],AUC [5],IC50 [5] [µM],AUC [6],IC50 [6] [µM]
"TOV-112D (ovary, adherent)",–,–,0.809,4.2,0.546,0.427,0.755,1.36,0.668,0.369,0.986,> 10
"TT2609-C02 (thyroid, adherent)",–,–,0.745,2.66,0.527,0.381,0.968,> 4,0.33,0.0404,0.986,> 10
"TT (thyroid, adherent)",–,–,0.875,> 8,0.954,> 5.12,0.93,> 4,0.658,0.409,0.981,> 10
"TYK-nu (ovary, adherent)",–,–,0.951,> 8,0.558,0.467,0.901,> 4,0.57,0.197,0.964,> 10
"U251 (glioma, adherent)",–,–,0.945,> 8,0.369,0.142,0.922,> 4,0.945,> 2,0.894,> 10
"U-118-MG (glioma, adherent)",–,–,0.869,> 8,0.749,1.88,0.893,> 4,0.833,1.59,0.983,> 10
"UACC-62 (melanoma, adherent)",–,–,0.987,> 8,0.682,1.02,0.664,0.711,0.814,1.08,0.967,> 10
"UACC-893 (breast, adherent)",–,–,0.975,> 8,0.824,4.53,0.761,1.9,0.955,> 2,0.979,> 10
"UM-UC-3 (bladder, adherent)",–,–,0.946,> 8,0.673,0.937,0.818,2.08,0.859,1.5,0.988,> 10
"UMC-11 (lung carcinoid, adherent)",–,–,0.961,> 8,0.338,0.12,0.971,> 4,0.795,0.818,0.991,> 10
"VMRC-RCZ (kidney, adherent)",–,–,0.973,> 8,0.59,0.59,0.809,2.51,0.488,0.115,0.968,> 10
"WM35 (melanoma, adherent)",–,–,0.962,> 8,0.476,0.274,0.763,1.45,0.674,0.383,0.963,> 10
"WM278 (melanoma, adherent)",–,–,0.978,> 8,0.792,2.66,0.778,1.84,0.577,0.209,0.905,> 10
"WM793B (melanoma, adherent)",–,–,0.858,7.72,0.728,1.54,0.873,> 4,0.694,0.467,0.945,> 10
"WM1552C (melanoma, adherent)",–,–,0.919,> 8,0.62,0.689,0.838,2.74,0.889,> 2,0.98,> 10
"WM-115 (melanoma, adherent)",–,–,0.776,3.95,0.622,0.751,0.802,2.5,0.834,1.73,0.945,> 10
"YAPC (pancreas, adherent)",–,–,0.957,> 8,0.877,> 5.12,0.827,3.3,0.876,> 2,0.983,> 10
"huH-1 (liver, adherent)",–,–,0.965,> 8,0.794,3,0.876,> 4,0.582,0.221,0.984,> 10
